Laboratory results reported in patent US20030133972A1, “Targeted multivalent macromolecules” (priority 2000, published 2003).

Tested on: K1735-M2 mouse melanoma model
Test: TUNEL assay on resected tumors of the melanoma study
Conditions: no Y90; tumor resected eight days post treatment
Excerpt: Eight days post treatment one tumor from each treatment group was selected at random for histological staining. The tumors were resceted and frozen in isopentane at liquid nitrogen temperatures.
Marin Biologic Laboratories, Inc. in Tiburon Calif. performed TUNEL assay, Von Willebrand's Factor and H&E staining on resceted tumors.

Question: With “4-[2-(3,4,5,6-Tetrahydropyrimidin-2-ylamino)ethyloxy]-benzoyl-2-(S)amino Ethylsulfonylamino-β-alanine [Compound 10]” as the substance, how does the TUNEL assay result read?
Answer: The TUNEL assay result was “mostly healthy cells”.
